Measured values reported in US11458122B2, “Methods for treating diseases and nerve injuries” (CHILDREN'S HOSPITAL MEDICAL CENTER, priority 2017, dated 2022).

Experiments:
[1] = system: SCs isolated from neonatal rat sciatic nerve; assay: SC cultures treated with HDAC inhibitors: morphology, MPZ/phalloidin immunostaining, qRT-PCR; settings: immunocytochemistry and qRT-PCR
Protocol: Rat SCs from sciatic nerves of newborn rats (1-2 days old) were isolated as described previously (Wu L M, et al. […] SCs were grown in DMEM/10% FBS (Life Technologies), supplemented with 10 ng/ml neuregulin 1 (NRG1 type III; 396-HB-050; R&D Systems), and 5 μM forskolin (Sigma, F6886), plus L-glutamine and penicillin/streptomycin, hereafter denoted as SC proliferation medium. Cells between passages 2 and 5 were used in all experiments. >95% SC purity was achieved, assessed by positive SOX10 and S100β immunoreactivity. To initiate differentiation, SCs were cultured in differentiation medium containing DMEM/0.5% FBS and 1 mM dibutyl cyclic AMP (Sigma, D0627) with L-glutamine and penicillin/streptomycin, for the length of time indicated in the text, depending on the assays used. Human neurofibroma-derived Schwann cell lines SNF02.2 (ATCC CRL-2885) and SNF96.2 (ATCC CRL-2884) were propagated in DMEM/10% FBS plus L-glutamine and penicillin/streptomycin. All tissue culture containers and coverslips were coated with 50 μg/ml poly-L-lysine (Sigma, P7890) in PBS for at least 30 min at room temperature and then rinsed with distilled water.
(§1) PCR primer sequences are available upon request.

[2] = system: human neurofibroma-derived Schwann cell lines SNF02.2 and SNF96.2; assay: Myelin gene expression in human SC lines by qRT-PCR; type: cell-based; settings: SNF02.2 and SNF96.2, normalized to vehicle
Source text: as §1

Structure (SMILES)	expression of mature SC markers MPZ and PMP22 [1]	transcript levels of myelination-associated genes EGR2, MBP and PMP22 [2]
Cc1ccc(NC(=O)CCCCCC(=O)Nc2ccccc2N)cc1 [PDA106, N1-(2-Aminophenyl)-N7-(4-methylphenyl)-heptanediamide]	induction	Upregulation
Nc1cc(F)ccc1NC(=O)/C=C/c1cnn(C/C=C/c2ccccc2)c1 [RGFP966, (2E)-N-(2-Amino-4-fluorophenyl)-3-[(2E)-1-(3-phenyl-2-propen-1-yl)-1H-pyrazol-4-yl]-2-propenamide]	induction	Upregulation
